Target: the molecule itself
Assay: AUC

B1: Neuronal growth regulator 1 (NEGR1) extracellular domain, […], with C-terminal linker and hexahistidine tag (domain or fragment)
chain: not shown
modifications: N-linked glycosylation (extensive)
- stoichiometry N: 2

Reference: paper PMC7502549 (Journal of molecular biology, 2020)
